Assay results as given in the supplement of paper PMC12217912.
The other results are listed elsewhere or left out. The full chains were built here from the parent and the listed change. Values near 0.05 are background.

B1: TEV protease; numbered along this chain (parent)
chain: MGESLFKGPRDYNPISSSICHLTNESDGHTTSLYGIGFGPFIITNKHLFRRNNGTLVVQSLHGVFKVKDTTTLQQHLVDGRDMIIIRMPKDFPPFPQKLKFREPQREERICLVTTNFQTKSMSSMVSDTSCTFPSGDGIFWKHWIQTKDGQCGSPLVSTRDGFIVGIHSASNFTNTNNYFTSVPKNFMELLTNQEAQQWVSGWRLNADSVLWGGHKVFMVKPEEPFQPVKEATQL

Variants of: B1
Test: raw area under fraction-flipped curve 0-4 h after induction (AUC4h, not background-subtracted), DNA-recorder readout of cleavage of the substrate (dimensionless); higher = more cleavage of the substrate by the protease variant
Details: temperature: 34 °C; time window: 0-4 h after rhamnose induction
Description: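 In vivo DNA recorder in E. coli TOP10(DE3) ΔrhaA at 34 °C. Each TEVp single-site mutant (parent TEVp 0) is paired with a single-site variant of the 7-mer TEVs (canonical ENLYFQ|S). The substrate sits between flexible linkers in a Bxb1-sfGFP-TEVs-SsrA fusion, so cleavage stabilises Bxb1 and speeds flipping of a recombination array, read by NGS. The value is the raw area under the fraction-flipped curve over 0-4 h after rhamnose induction (AUC4h), with ≥20 reads per time point. It is not background-subtracted; inactive controls average about 0.047.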
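Note: Bxb1 expression induced with 0.2% (w/v) L-rhamnose at OD600 near 0.5, cultures sampled hourly, flipped fraction per protease–substrate barcode pair counted by paired-end Illumina sequencing.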

| Variant | area with substrate ENLYFAS | area with substrate ENLYFCS | area with substrate ENLYFES | area with substrate ENLYFFS | area with substrate ENLYFHS | area with substrate ENLYFIS | area with substrate ENLYFKS | area with substrate ENLYFLS | area with substrate ENLYFMS | area with substrate ENLYFNS | area with substrate ENLYFPS | area with substrate ENLYFRS | area with substrate ENLYFSS | area with substrate ENLYFTS | area with substrate ENLYFVS | area with substrate ENLYFWS | area with substrate ENLYFYS | area with substrate ENLYFDS | area with substrate ENLYFGS |
| --- | --- | --- | --- | --- | --- | --- | --- | --- | --- | --- | --- | --- | --- | --- | --- | --- | --- | --- | --- |
| MGESLFKGPRDYNPISSSICHLTNESDGHTTSLYGIGFGPFIITNKHLFRRNNGTLVVQSLHGVFKVKDTTTLQQHLVDGRDMIIIRMPKDFPPFPQKLKFREPQREERICTVTTNFQTKSMSSMVSDTSCTFPSGDGIFWKHWIQTKDGQCGSPLVSTRDGFIVGIHSASNFTNTNNYFTSVPKNFMELLTNQEAQQWVSGWRLNADSVLWGGHKVFMVKPEEPFQPVKEATQL [L112T] | 0.0611 | 0.0586 | 0.0651 | 0.067 | 0.0605 | 0.0648 | 0.0713 | 0.0597 | 0.0389 | 0.07 | 0.0723 | 0.0657 | 0.0583 | 0.0571 | 0.0906 | 0.0692 | 0.0624 |  |  |
| MGESLFKGPRDYNPISSSICHLTNESDGHTTSLYGIGFGPFIITNKHLFRRNNGTLVVQSLHGVFKVKDTTTLQQHLVDGRDMIIIRMPKDFPPFPQKLKFREPQREERICVVTTNFQTKSMSSMVSDTSCTFPSGDGIFWKHWIQTKDGQCGSPLVSTRDGFIVGIHSASNFTNTNNYFTSVPKNFMELLTNQEAQQWVSGWRLNADSVLWGGHKVFMVKPEEPFQPVKEATQL [L112V] | 0.0472 | 0.0983 | 0.0569 | 0.0619 | 0.0528 | 0.0554 |  | 0.0594 | 0.0608 |  | 0.0606 | 0.0775 | 0.0469 | 0.0625 | 0.0553 |  |  | 0.0562 |  |
| MGESLFKGPRDYNPISSSICHLTNESDGHTTSLYGIGFGPFIITNKHLFRRNNGTLVVQSLHGVFKVKDTTTLQQHLVDGRDMIIIRMPKDFPPFPQKLKFREPQREERICMVTTNFQTKSMSSMVSDTSCTFPSGDGIFWKHWIQTKDGQCGSPLVSTRDGFIVGIHSASNFTNTNNYFTSVPKNFMELLTNQEAQQWVSGWRLNADSVLWGGHKVFMVKPEEPFQPVKEATQL [L112M] | 0.0688 | 0.0646 |  |  |  | 0.055 | 0.0606 | 0.0683 | 0.0667 | 0.0581 |  | 0.0485 |  |  |  | 0.0589 |  |  |  |
| MGESLFKGPRDYNPISSSICHLTNESDGHTTSLYGIGFGPFIITNKHLFRRNNGTLVVQSLHGVFKVKDTTTLQQHLVDGRDMIIIRMPKDFPPFPQKLKFREPQREERICDVTTNFQTKSMSSMVSDTSCTFPSGDGIFWKHWIQTKDGQCGSPLVSTRDGFIVGIHSASNFTNTNNYFTSVPKNFMELLTNQEAQQWVSGWRLNADSVLWGGHKVFMVKPEEPFQPVKEATQL [L112D] | 0.0576 | 0.0056 | 0.04 |  |  | 0.0483 | 0.0648 |  | 0.0607 | 0.0559 |  | 0.0759 |  |  | 0.0549 |  |  |  | 0.0466 |
| MGESLFKGPRDYNPISSSICHLTNESDGHTTSLYGIGFGPFIITNKHLFRRNNGTLVVQSLHGVFKVKDTTTLQQHLVDGRDMIIIRMPKDFPPFPQKLKFREPQREERICAVTTNFQTKSMSSMVSDTSCTFPSGDGIFWKHWIQTKDGQCGSPLVSTRDGFIVGIHSASNFTNTNNYFTSVPKNFMELLTNQEAQQWVSGWRLNADSVLWGGHKVFMVKPEEPFQPVKEATQL [L112A] | 0.057 | 0.0431 | 0.0586 | 0.0643 | 0.0397 | 0.0543 | 0.0667 | 0.0574 | 0.0654 | 0.0667 | 0.0531 | 0.0894 |  | 0.0598 | 0.0585 | 0.0543 | 0.0608 |  | 0.0547 |
| MGESLFKGPRDYNPISSSICHLTNESDGHTTSLYGIGFGPFIITNKHLFRRNNGTLVVQSLHGVFKVKDTTTLQQHLVDGRDMIIIRMPKDFPPFPQKLKFREPQREERICGVTTNFQTKSMSSMVSDTSCTFPSGDGIFWKHWIQTKDGQCGSPLVSTRDGFIVGIHSASNFTNTNNYFTSVPKNFMELLTNQEAQQWVSGWRLNADSVLWGGHKVFMVKPEEPFQPVKEATQL [L112G] | 0.0518 |  | 0.0617 | 0.0797 |  | 0.0486 |  |  | 0.0522 | 0.0636 | 0.0667 |  | 0.0521 | 0.0526 | 0.0684 | 0.064 |  | 0.0454 | 0.0616 |
| MGESLFKGPRDYNPISSSICHLTNESDGHTTSLYGIGFGPFIITNKHLFRRNNGTLVVQSLHGVFKVKDTTTLQQHLVDGRDMIIIRMPKDFPPFPQKLKFREPQREERICKVTTNFQTKSMSSMVSDTSCTFPSGDGIFWKHWIQTKDGQCGSPLVSTRDGFIVGIHSASNFTNTNNYFTSVPKNFMELLTNQEAQQWVSGWRLNADSVLWGGHKVFMVKPEEPFQPVKEATQL [L112K] | 0.0567 | 0.0622 | 0.0753 | 0.0721 | 0.0509 | 0.0607 | 0.0601 | 0.0662 | 0.0688 | 0.0707 | 0.0495 | 0.05 | 0.0535 | 0.0562 | 0.0643 | 0.058 | 0.0581 |  |  |
| MGESLFKGPRDYNPISSSICHLTNESDGHTTSLYGIGFGPFIITNKHLFRRNNGTLVVQSLHGVFKVKDTTTLQQHLVDGRDMIIIRMPKDFPPFPQKLKFREPQREERICLVTTNFQTKSMWSMVSDTSCTFPSGDGIFWKHWIQTKDGQCGSPLVSTRDGFIVGIHSASNFTNTNNYFTSVPKNFMELLTNQEAQQWVSGWRLNADSVLWGGHKVFMVKPEEPFQPVKEATQL [S123W] | 0.055 | 0.0597 | 0.0597 | 0.0559 | 0.0644 | 0.0616 | 0.059 |  | 0.0537 | 0.0649 | 0.0523 | 0.0573 |  | 0.0532 | 0.0631 | 0.0579 | 0.0587 | 0.0661 | 0.068 |
